Experimental data reported in PubChem BioAssay AID1794842 (National Center for Advancing Translational Sciences (NCATS), 2023).
Out of some 2,800 compounds screened, fewer than 10 were called active. The call rests on the fitted dose curve; in most records, active means well fitted curve in the direction sought with a large enough effect; inconclusive means small, poorly fitted or top-dose-only effect, or another doubt; inactive means no such curve, though single readings can be large or run the other way. Some of the results follow.

molecular target: Metallo-beta-lactamase type 2 (Klebsiella pneumoniae) (UniProt C7C422); assay: qHTS to identify inhibitors of the New Delhi Metallo-beta-lactamase (NDM): Meropenem screen against the machine-based learning selections.; further: % of control where 0% means no effect; conditions: Purified NDM-1, meropenem hydrolysis, absorbance 300 nm; at 38.4 µM (top of the series) unless noted
Sequence of UniProt C7C422 (C7C422 whole entry, looked up): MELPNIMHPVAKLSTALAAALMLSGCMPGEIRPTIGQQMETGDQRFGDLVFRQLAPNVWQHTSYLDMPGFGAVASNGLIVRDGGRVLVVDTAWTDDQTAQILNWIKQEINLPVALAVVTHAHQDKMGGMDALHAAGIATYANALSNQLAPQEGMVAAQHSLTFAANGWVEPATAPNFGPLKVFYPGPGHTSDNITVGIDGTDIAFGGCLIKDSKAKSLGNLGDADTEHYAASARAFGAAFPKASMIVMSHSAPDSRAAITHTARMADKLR
Summary of the method: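 Hydrolysis by 2 nM NDM-1 was followed by absorbance after >30 min compound preincubation in HEPES pH 7.0 buffer with 1 uM Zn2SO4. For nitrocefin (16.7 uM, 15 min, 485 nm) and meropenem (50 uM, 30 min, 300 nm), each substrate ran on separate plates.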

Row | SMILES | activity change, negative = inhibition
1 | O=C(N[C@@H]1CCN(C(=O)c2ccc3cc[nH]c3c2)C[C@H]1O)c1cnccn1 | inactive: 2.75%
2 | NC(=O)C1CCN(CC[C@H]2CN(C(=O)Nc3ccc(OC(F)(F)F)cc3)CC[C@H]2CC(=O)O)CC1 | inactive: 5.2%
3 | COCCNC(=O)[C@@H]1CCC[C@@H](NC(=O)c2ccc(Cl)cc2)CN(C)C(=O)C1 | inactive: 0.782% [at 57.5 µM]
4 | Cc1ccc(F)cc1S(=O)(=O)N1CCn2c(n[nH]c2=O)C1 | inactive: -0.877%
5 | O=C(O)CN1CCNc2nc(CNc3ccc(F)cc3)n(Cc3ccccc3)c2C1=O | inactive: 12.3% [at 57.5 µM]
6 | CNC(=O)[C@@H](c1ccccc1OC)N1CCC[C@H]1C(=O)N1CC[C@@H](O)C1 | inactive: 55.7% [at 57.5 µM]
7 | Cc1cccc(-c2cnc3n[nH]c(-c4ccccc4)c3n2)c1 | inactive: -0.0468% [at 76.7 µM]
8 | O=C(c1cccnc1)N1CC[C@H]2COC(=O)N2c2cc(F)ccc2C1 | inactive: 1.34% [at 57.5 µM]
9 | Cc1ccc(S(=O)(=O)NC[C@H]2O[C@H](Cc3cc(-c4cccc(O)c4)on3)CC[C@@H]2O)cc1 | inactive: -3.19%
10 | CCCNC(=O)N[C@@H]1C[C@H](Cn2cc(C3CC3)nn2)[C@@H](O)[C@H]1O | inactive: 42.3% [at 57.5 µM]
11 | Cc1ccccc1-c1cnc2[nH]cc(CC(=O)NCc3ccccc3)c2c1 | inactive: -0.253% [at 57.5 µM]
12 | CCO[C@H]1CN(C(=O)Cc2ccc3nc(C)[nH]c3c2)C[C@@H]1O | inactive: 2.16%
13 | Cc1noc(C)c1[S+](=O)([O-])N1CCC2(C1)N=C(c1cccnc1)C(=O)N2 (stereo not drawn) | inactive: 2.73%
14 | Fc1ccc2nc([C@H]3CCN(C4CCC4)C3)[nH]c2c1 | inactive: 1.46% [at 76.7 µM]
15 | Fc1ccccc1CN1CCNc2cc(Nc3cccnc3)ncc2C1 | inactive: 6.19% [at 57.5 µM]
16 | Nc1nc(C2CC(O)C2)cc(N2CCCN(Cc3ccccn3)CC2)n1 (stereo not drawn) | inactive: 2.71%
17 | O=c1[nH]c(-c2ccc(F)cc2)nc2c1CCN(S(=O)(=O)c1cccs1)C2 | inactive: 1.01%
18 | Cc1noc2c(-c3cccc(O)c3)cc(-c3cccs3)nc12 | inactive: 1.79% [at 57.5 µM]
19 | CNC(=O)C1CCCN(Cc2nc(-c3cccc(Oc4ccccc4)c3)oc2C)C1 (stereo not drawn) | inactive: 3.84%

Row | SMILES | activity change, negative = inhibition
20 | COCc1ccc(CN[C@H]2C[C@@H](Cc3cc(CN4CCCCC4)on3)C2(C)C)o1 | inactive: -1.59% [at 57.5 µM]
21 | COc1ccc2nc3n(c2c1)[C@@H](CNC(=O)c1ccc(F)cc1)COC3 | inactive: -0.619% [at 57.5 µM]
22 | Fc1ccc(CNc2cc3c(cn2)NCCN(Cc2ccccc2)C3)cc1 | inactive: -1.35% [at 57.5 µM]
23 | O=C(NCC1(COc2cccnc2)C[C@@H](O)[C@@H](O)C1)Nc1cccnc1 (stereo partly drawn) | inactive: 21.8% [at 57.5 µM]
24 | COc1ccc(NC(=O)C2(C)CCCc3cnc(Nc4cccnc4)nc32)cc1 (stereo not drawn) | inactive: 19.6% [at 57.5 µM]
25 | C[C@@H]1CN(C(=O)CCN(C)S(C)(=O)=O)C[C@@]1(O)C1CC1 | inactive: 0.0588%
26 | CC1(C)[C@H](Cc2cc(CCO)on2)C[C@@H]1N(S(C)(=O)=O)S(C)(=O)=O | inactive: 13.4% [at 57.5 µM]
27 | CCOC(=O)CCNC(=O)N1CCC(Oc2ncccc2C(=O)N2CCCCC2)C1 (stereo not drawn) | inactive: 2.32%
28 | NCCC[C@@H](N)C(=O)N1CCCC(c2ccccc2)(c2ccccc2)C1 | inactive: 14.8%
29 | O=C(NCc1cc2n(n1)CCNC2)c1ccc2c(c1)ncn2CCO | inactive: 46.8%
30 | NS(=O)(=O)c1ccc(CNc2nccc(-c3cccnc3)n2)cc1 | inactive: 0.369%
31 | CN(C)Cc1cn(C[C@H]2C[C@@H](NC(=O)c3nc4ccccc4s3)[C@H](O)[C@@H]2O)nn1 | inactive: 12.9%
32 | CCCN(CC1CC1)C(=O)C1CCC(=O)N(Cc2ccc(Cl)cc2)C1 (stereo not drawn) | inactive: -0.692%
33 | Cc1cccc2c1nc1n2[C@@H](CNCc2ccc(C#N)cc2)COC1 | inactive: -3.69% [at 57.5 µM]
34 | Cc1cc(C(=O)N2CC[C@H](NS(=O)(=O)c3cccs3)C[C@H]2C(=O)N[C@H](C)C(N)=O)n(C)n1 | inactive: 2.48%
35 | COCc1cc(C[C@@H]2CC[C@H](O)[C@@H](CNC(=O)C3CCCC3)O2)no1 | inactive: 1.91% [at 57.5 µM]
36 | O[C@H]1CC[C@@H](Cc2cc(COc3ccccc3)on2)O[C@@H]1CN(CC1CC1)CC1CC1 | inactive: 0.357% [at 57.5 µM]
37 | CC(C)NS(=O)(=O)c1cc(C(=O)O)cc(-c2cccc3c2OCC3)c1 | inactive: 6.54%
38 | COc1ccc([C@H]2C[C@@H](O)[C@@H](O)[C@@H]2NCc2ccc(OC)nc2)cc1 | inactive: 0.0934% [at 57.5 µM]
